Data reported in PMC2782468 (Nature structural & molecular biology, 2009).

Target: T1, human nuclear cap-binding complex (CBC), CBP20 and CBP80 co-expressed (human, UniProt Q09161;P52298)
T1 sequence 1: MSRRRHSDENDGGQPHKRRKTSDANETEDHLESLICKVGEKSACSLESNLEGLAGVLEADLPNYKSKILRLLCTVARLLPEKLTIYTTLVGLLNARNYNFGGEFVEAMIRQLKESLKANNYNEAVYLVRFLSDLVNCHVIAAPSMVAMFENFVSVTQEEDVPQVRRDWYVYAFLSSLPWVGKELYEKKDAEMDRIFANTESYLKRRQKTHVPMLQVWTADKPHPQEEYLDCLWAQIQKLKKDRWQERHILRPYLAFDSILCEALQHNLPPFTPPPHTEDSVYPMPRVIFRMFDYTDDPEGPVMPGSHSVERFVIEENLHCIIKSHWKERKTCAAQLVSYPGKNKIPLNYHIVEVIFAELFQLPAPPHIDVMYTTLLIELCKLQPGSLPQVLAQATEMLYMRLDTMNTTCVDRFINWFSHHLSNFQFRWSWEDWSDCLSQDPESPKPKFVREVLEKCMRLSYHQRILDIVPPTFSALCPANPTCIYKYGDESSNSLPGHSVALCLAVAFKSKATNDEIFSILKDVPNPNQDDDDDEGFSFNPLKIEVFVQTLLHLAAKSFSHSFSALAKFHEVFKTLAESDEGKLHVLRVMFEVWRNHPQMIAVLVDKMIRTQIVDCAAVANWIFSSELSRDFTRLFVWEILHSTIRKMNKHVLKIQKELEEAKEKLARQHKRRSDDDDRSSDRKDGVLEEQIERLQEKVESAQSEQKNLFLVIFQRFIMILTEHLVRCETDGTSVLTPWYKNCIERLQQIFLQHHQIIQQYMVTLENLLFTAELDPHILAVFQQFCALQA
T1 sequence 2: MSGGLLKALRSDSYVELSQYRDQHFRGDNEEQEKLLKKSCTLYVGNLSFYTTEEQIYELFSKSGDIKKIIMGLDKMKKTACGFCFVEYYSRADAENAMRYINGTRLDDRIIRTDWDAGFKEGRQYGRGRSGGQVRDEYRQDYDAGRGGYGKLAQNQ
Experiment: native gel or EMSA

binding result: binds
B1: importin-β ([…]) (domain or fragment)
chain: not shown
